{"source": "PubChem BioAssay AID485290", "about": "(National Center for Advancing Translational Sciences (NCATS), 2010)", "note": "Among all 350,000 compounds or so, about 990 (0.28%) were called active. The shares of active, inactive and inconclusive entries below differ from those in the screen. Calls follow the shape of the dose curve; as a rule, active = well fitted inhibition curve with a large enough effect; inconclusive = small, poorly fitted or top-dose-only effect; inactive = no such curve, though single readings can be large or run the other way. Where the call is inconclusive, the potency comes from a doubtful curve fit. % is scaled to controls: 0 for no effect and ±100 for the full control effect; potency is read from the fitted curve at half-maximal effect; tags tell the direction and shape of the fitted curve.", "data": [{"target": "Tyrosyl-DNA phosphodiesterase 1 (Homo sapiens) (UniProt Q9NUW8)", "sequence (Q9NUW8 whole entry, looked up)": "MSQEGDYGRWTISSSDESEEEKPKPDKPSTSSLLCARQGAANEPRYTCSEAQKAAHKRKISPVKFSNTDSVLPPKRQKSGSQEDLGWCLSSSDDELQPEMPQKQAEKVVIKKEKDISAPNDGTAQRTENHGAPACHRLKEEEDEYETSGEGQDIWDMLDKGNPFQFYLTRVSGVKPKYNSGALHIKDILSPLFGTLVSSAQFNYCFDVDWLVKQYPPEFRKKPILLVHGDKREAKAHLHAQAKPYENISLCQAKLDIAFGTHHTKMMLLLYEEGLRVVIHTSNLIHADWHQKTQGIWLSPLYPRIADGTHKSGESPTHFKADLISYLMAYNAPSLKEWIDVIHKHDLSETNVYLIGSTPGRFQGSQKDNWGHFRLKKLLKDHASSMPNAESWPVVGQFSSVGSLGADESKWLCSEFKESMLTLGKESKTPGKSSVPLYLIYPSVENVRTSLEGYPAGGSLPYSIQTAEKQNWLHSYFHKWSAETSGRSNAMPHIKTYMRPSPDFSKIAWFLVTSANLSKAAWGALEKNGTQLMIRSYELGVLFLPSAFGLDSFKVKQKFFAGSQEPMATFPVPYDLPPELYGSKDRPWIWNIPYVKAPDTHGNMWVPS", "assay": "qHTS Assay for Inhibitors of Tyrosyl-DNA Phosphodiesterase (TDP1); also: nearly all actives have a fitted effect of over 40% in size", "details": "recombinant TDP1, AlphaScreen DNA substrate cleavage; activity change, negative = inhibition: at 130 µM (top of the series) unless noted", "text": "NIH Molecular Libraries Probe Production Network [MLPCN]\nNIH Chemical Genomics Center [NCGC]\nAssay Provider: Yves Pommier and Christophe Marchand, National Cancer Institute\nAssay Title: qHTS Assay for Inhibitors of Tyrosyl-DNA Phosphodiesterase (TDP1)\nHuman tyrosyl-DNA phosphodiesterase I (Tdp1) is a rational anticancer target because this enzyme is involved in the repair of DNA lesions created by the trapping of human DNA topoisomerase I (Top1) following treatment by anticancer agents such as camptothecins. Recombinant Tdp1 was expressed and purified from E. coli in the laboratory (Anthony et al, Nucleic Acids Research, 2007, Vol. 35, 4474-4484). A Tdp1 DNA substrate bearing a 5' biotin and a 3' phospho-tyrosine was obtained by custom synthesis. This oligonucleotidic DNA substrate was subsequently coupled to a fluorescein isothiocyanate (FITC) group via the free amino group present on the phospho-tyrosine. Tdp1 was screened against the NCGC small molecule library using the AlphaScreen (AS) detection method in which a streptavidin donor AS bead is bound at the 5' end and an anti-FITC AS acceptor bead is bound at the 3' end of the DNA oligonucleotidic substrate. In the presence of Tdp1, the enzyme cleaves the tyrosine-FITC group, leaving a 3' end phosphate on the DNA substrate. This cleavage reaction results in a loss of signal in AS.\n[1] 3 ul of buffer is dispensed in columns 3 & 4 as negative control (no enzyme and maximum signal),\n[2] 3 ul of enzyme (1 nM final) is dispensed in columns 1,2, 5-48,\n[3] 1 ul of substrate (15 nM final) is dispensed throughout the plate,\n[4] 1 ul of AS donor/acceptor bead mix (10 ug/ml final) is dispensed throughout the plate\n3 ul of Tdp1 enzyme is dispensed to 1536-well Kalypsys black solid bottom plates. Compounds and controls (23 nl) are transferred via Kalypsys Pin Tool. The plates are incubated for 15 min at room temperature, and then 1 ul of substrate is added to start the reaction. After 5 min incubation at room temperature, 1 ul of AS donor/acceptor bead mix is added and the plates are further incubated for 10 min at room temperature. The detection is then performed on a PerkinElmer Envision reader.", "values": [{"smiles": "O=C(N/N=C/c1c(O)ccc2ccccc12)c1ccc(Br)o1", "Potency": "inconclusive: 20 µM [inhibitor, partial curve]"}, {"smiles": "CCOc1ccccc1OCCOc1ccc(F)cc1", "Potency": "inconclusive: 20 µM [inhibitor, full curve, poor fit]"}, {"smiles": "O=C(NC1CC1)C1CCN(S(=O)(=O)c2cc([N+](=O)[O-])ccc2Cl)CC1", "Potency": "inconclusive: 35.5 µM [inhibitor, partial curve]"}, {"smiles": "O=C(c1cccnc1)N1CCN(Cc2ccc3c(c2)OCO3)CC1", "Potency": "inconclusive: 8.91 µM [inhibitor, partial curve, poor fit]"}, {"smiles": "CC(=O)Nc1nc(C)c(Oc2ccc(C)cc2)c(=O)[nH]1", "Potency": "inconclusive: 89.1 µM [inhibitor, single point]"}, {"smiles": "CC(C)n1c(-c2ccncc2)n[nH]c1=S", "Potency": "inconclusive: 2.24 µM [inhibitor, full curve]"}, {"smiles": "Cc1c(C(=O)OCc2ccccc2)[nH]c2c1C(=O)CC(c1ccco1)C2", "note": "(centres undefined)", "Potency": "inconclusive: 20 µM [inhibitor, full curve]"}, {"smiles": "CC(C)Nc1nc(NC(N)=S)nc(NC(C)C)n1", "Potency": "inconclusive: 39.8 µM [inhibitor, single point]"}, {"smiles": "Oc1c(C(c2ccco2)N2CCC3(CC2)OCCO3)sc2ncnn12", "note": "(centres undefined)", "Potency": "inconclusive: 35.5 µM [inhibitor, partial curve]"}, {"smiles": "CCOc1ccccc1OCCCC(=O)NNC(=O)c1nn(C)c(=O)c2ccccc12", "Potency": "inactive"}, {"smiles": "O=C(Nc1ccc(Cl)cn1)C1CCCN1S(=O)(=O)c1ccc(Cl)cc1", "note": "(centres undefined)", "Potency": "inactive"}, {"smiles": "COc1ccc(-c2nn(-c3ccccc3)cc2/C=C2/SC(=S)N(CCC(=O)O)C2=O)c(C)c1", "Potency": "active: 39.8 µM"}, {"smiles": "C[C@@H]1CN([C@H](C)CO)C(=O)c2cccc(NC(=O)Nc3ccc(C(F)(F)F)cc3)c2O[C@H]1CN(C)S(=O)(=O)c1cccs1", "Potency": "inactive"}, {"smiles": "CCC(c1nnnn1CCOC)N(Cc1ccc(C)cc1)Cc1cc2cc(OC)ccc2[nH]c1=O", "note": "(centres undefined)", "Potency": "inconclusive: 39.8 µM [inhibitor, single point]"}, {"smiles": "CCCSc1nc(=O)c2c(n1C)NC(=O)CC2c1cccc(F)c1F", "note": "(centres undefined)", "Potency": "inconclusive: 17.8 µM [inhibitor, single point]"}, {"smiles": "COc1cc(OC)cc(-c2nc(SCC(=O)Nc3ccccc3F)n[nH]2)c1", "Potency": "inconclusive: 50.1 µM [inhibitor, partial curve]"}, {"smiles": "C=CCn1c(O)c(N=NC(=O)CNC(=O)/C=C/c2ccco2)c2ccccc21", "Potency": "inconclusive: 39.8 µM [inhibitor, partial curve]"}, {"smiles": "COc1ccc(-n2c(C)cc(/C=C/c3nc(O)c([N+](=O)[O-])c(=O)[nH]3)c2C)cc1", "Potency": "inconclusive: 50.1 µM [inhibitor, partial curve]"}, {"smiles": "O=c1c(C(c2ccc(O)cc2)c2c(O)nc3n(c2=O)CCCS3)c(O)nc2n1CCCS2", "Potency": "inconclusive: 31.6 µM [inhibitor, partial curve]"}, {"smiles": "CCOC(=O)c1cc(C#N)c(SCc2cccc3ccccc23)nc1C", "Potency": "inconclusive: 15.8 µM [inhibitor, partial curve]"}, {"smiles": "O=C(Nc1nc(-c2cc3ccccc3oc2=O)cs1)c1ccc(Br)o1", "Potency": "inconclusive: 25.1 µM [inhibitor, single point]"}, {"smiles": "CCOc1ccc(Sc2cc(C(=O)NCc3ccc(F)cc3)c3ccccc3n2)cc1", "Potency": "inactive"}, {"smiles": "CN(C(=O)CSc1cc(Cl)ccc1Cl)C1CCS(=O)(=O)C1", "note": "(centres undefined)", "Potency": "inactive"}, {"smiles": "CCCc1[nH]n(-c2nc3ccccc3s2)c(=O)c1C=NCCN1CCOCC1", "Potency": "inactive"}, {"smiles": "N#Cc1ccccc1S(=O)(=O)N1CCN(C(=O)c2cc3c(s2)CCC3)CC1", "Potency": "active: 5.01 µM"}, {"smiles": "CNC(=S)N/N=C/c1ccc(-c2ccc(Cl)c([N+](=O)[O-])c2)o1", "Potency": "inconclusive: 39.8 µM [inhibitor, partial curve]"}, {"smiles": "CC1C/C(=N/N2C(=O)CSC2=S)CC(C)(C)C1", "note": "(centres undefined)", "Potency": "inconclusive: 44.7 µM [inhibitor, partial curve]"}, {"smiles": "CCN(CC)C(=O)CN(c1cccc(Br)c1)S(C)(=O)=O", "Potency": "inconclusive: 0.224 µM [inhibitor, full curve, poor fit]"}, {"smiles": "CC(C)(C)OC(=O)[C@H](Cc1ccccc1)NC(=O)c1nc[nH]c1C(=O)NCc1ccccc1", "Potency": "inactive"}, {"smiles": "Cc1ccc(OCC(=O)Nc2sc3c(c2C(N)=O)CCCC3)c(C(C)(C)C)c1", "activity change, negative = inhibition": "inactive: -3.96% [at 12.3 µM]"}, {"smiles": "O=C(c1cnc(N2CCCCC2)c2ccccc12)N1CCN(c2cccc(Cl)c2)CC1", "Potency": "inactive"}, {"smiles": "COc1cc(S(=O)(=O)Nc2ccc(C)cc2)ccc1N=Cc1c(C)[nH]n(-c2ccccc2)c1=O", "Potency": "inactive"}, {"smiles": "CCCC(=O)c1cc(O)c(O)cc1O", "Potency": "inconclusive: 0.1 µM [inhibitor, full curve, poor fit]"}, {"smiles": "C=C(C)C(=O)Nc1cccc(C2=NOC3(C2)C[C@@H](C(N)=O)N(C(=O)CC(c2ccccc2)c2ccccc2)C3)c1", "note": "(some centres undefined)", "Potency": "active: 17.8 µM"}, {"smiles": "CCc1nn2c(=O)cc(COc3cccc(NC(=O)c4ccco4)c3)nc2s1", "Potency": "active: 50.1 µM"}, {"smiles": "CCS(=O)(=O)N1CCN(Cc2c[nH]c3ccccc23)CC1", "Potency": "inconclusive: 7.94 µM [inhibitor, partial curve, poor fit]"}, {"smiles": "COc1cc(NC(=O)c2cc([N+](=O)[O-])ccc2NC(=O)CNCc2ccccn2)cc(OC)c1", "Potency": "active: 56.2 µM"}, {"smiles": "CCc1nc2sc3c(=O)[nH]cnc3c2c2c1CSC(C)(C)C2", "Potency": "inconclusive: 15.8 µM [inhibitor, full curve]"}, {"smiles": "O=C(COC(=O)CC1CCCC1)Nc1cc2c(cc1Cl)C(=O)c1ccccc1C2=O", "Potency": "inconclusive: 25.1 µM [inhibitor, full curve]"}, {"smiles": "Cc1ccc[n+](-c2[nH]c(=O)sc2/C=N/N=C(\\[O-])c2cccnc2)c1", "Potency": "active: 50.1 µM"}, {"smiles": "CN(C)c1nc(SCCOC(=O)c2ccccc2)nc(N(C)C)n1", "Potency": "inconclusive: 35.5 µM [inhibitor, single point]"}, {"smiles": "O=C(CSc1nnc(NC(=O)c2ccc(F)cc2)s1)NC1CC1", "Potency": "inconclusive: 3.55 µM [inhibitor, single point]"}, {"smiles": "O=C(CNc1cc(S(=O)(=O)N2CCOCC2)ccc1N1CCCC1)N1CCc2ccccc21", "Potency": "inactive"}, {"smiles": "CC(=O)Nc1ccc(S(=O)(=O)Nc2nc3ccccc3nc2Sc2nncn2C)cc1", "Potency": "inactive"}, {"smiles": "C=CCn1c(SCC(=O)Nc2nnc(C)s2)nnc1C1CC1", "Potency": "active: 28.2 µM"}, {"smiles": "COc1ccc(NC(=O)C(NCC(C)C)c2ccccc2)cc1Cl", "note": "(centres undefined)", "Potency": "inconclusive: 17.8 µM [inhibitor, partial curve]"}, {"smiles": "COc1cc(NS(=O)(=O)c2c(C)oc3c(F)c(F)c(F)c(F)c23)cc(OC)c1OC", "Potency": "inactive"}, {"smiles": "NS(=O)(=O)c1ccc(N=Nc2ccc(=O)[nH]c2O)cc1", "Potency": "active: 44.7 µM"}, {"smiles": "COc1ccc(-c2csc3nc(C)nc(N4CCC(C)CC4)c23)cc1OC", "Potency": "inactive"}, {"smiles": "Nc1c(/C=C2/C=CC(=O)C(O)=C2)c(=O)nc2sc(CC(=O)N3CCCC3)nn12", "Potency": "inconclusive: 7.94 µM [inhibitor, full curve]"}, {"smiles": "Clc1ccc2c(c1)C(N1CCNCC1)=Nc1ccccc1O2", "Potency": "inconclusive: 0.01 µM [inhibitor, full curve, poor fit]"}, {"smiles": "c1ccc(-c2nc(C3CCCCC3)c3ccccc3n2)cc1", "Potency": "inconclusive: 22.4 µM [inhibitor, full curve, poor fit]"}, {"smiles": "COc1ccc(/C=C/C(=O)OCC(=O)NCc2ccco2)cc1OC", "Potency": "inconclusive: 25.1 µM [inhibitor, single point]"}, {"smiles": "COc1ccc(N2Cc3cccc(C(=O)Nc4ccc(C(C)C)cc4)c3C2=O)cc1", "Potency": "inconclusive: 28.2 µM [inhibitor, single point]"}, {"smiles": "O=C(Cn1c(=O)[nH]c2ccsc2c1=O)N1CCN(c2ccc(F)cc2)CC1", "Potency": "inactive"}, {"smiles": "C/C(=N/Nc1ccc(C(=O)O)cc1)c1ccc(O)c(O)c1O", "Potency": "inconclusive: 7.94 µM [inhibitor, partial curve]"}, {"smiles": "C=CCn1c(SCC(=O)NCCOC)nc2scc(-c3ccco3)c2c1=O", "Potency": "inconclusive: 44.7 µM [inhibitor, partial curve]"}, {"smiles": "C=CCNC(=O)NC(=O)COC(=O)CCCSc1nc2ccccc2[nH]1", "Potency": "inactive"}, {"smiles": "CCOc1ccc(NC(=O)c2ccc(NC(=O)c3ccc(NC(N)=O)cc3)cc2)cc1", "Potency": "active: 56.2 µM"}, {"smiles": "CC(=O)Nc1ccc(S(=O)(=O)N2CCN(c3cc(C)ccc3C)CC2)cc1", "Potency": "inactive"}, {"smiles": "CCOc1cc(C=O)ccc1OCCSc1ccc(C)cc1", "Potency": "inconclusive: 20 µM [inhibitor, partial curve]"}, {"smiles": "O=C(Nc1ccccc1[N+](=O)[O-])C1=C(O)CCn2c1nc1ccccc12", "Potency": "inconclusive: 63.1 µM [inhibitor, partial curve]"}, {"smiles": "Cc1ccc(C(=O)N/N=C\\c2cc3c(cc2Br)OCO3)s1", "Potency": "inconclusive: 35.5 µM [inhibitor, partial curve]"}, {"smiles": "CCOc1ccc(Oc2ccccc2NS(=O)(=O)c2ccc(CCC(=O)O)cc2)cc1", "Potency": "inconclusive: 50.1 µM [inhibitor, partial curve]"}, {"smiles": "CCOC(=O)C1=CN(Cc2ccc(OC)cc2)C=C(C(=O)OCC)C1c1cccs1", "Potency": "inconclusive: 17.8 µM [inhibitor, full curve]"}, {"smiles": "Cc1ccccc1-c1cc(-n2ccnc2)ncn1", "Potency": "active: 25.1 µM"}, {"smiles": "C=CCC(COCc1ccccc1)NS(=O)(=O)c1ccccc1Br", "note": "(centres undefined)", "Potency": "inconclusive: 25.1 µM [inhibitor, single point]"}, {"smiles": "O=C1C=C(Nc2ccc(O)cc2)C(=O)c2ccccc21", "Potency": "inconclusive: 79.4 µM [inhibitor, single point]"}, {"smiles": "Nc1c(O)cccc1C(=O)C[C@@H](N)C(=O)O", "Potency": "inconclusive: 7.94 µM [inhibitor, partial curve, poor fit]"}]}]}
